The values below come from publication PMC6332232, “In Vitro Metabolic Pathways of the New Anti-Diabetic Drug Evogliptin in Human Liver Preparations” (Molecules, 2015).

“And” between values parts separate entries of the source, which are not always exact repeats. Identical values can stand only once.

Substrate in this data set: CC(C)(C)OC[C@@H]1C(=O)NCCN1C(=O)C[C@H](N)Cc1cc(F)c(F)cc1F
The experiment in a line: not read. The note with it: other: CYP3A4, isoenzyme equation; pH 7.4; 37.0 °C.

B1: CYP3A4 (Homo sapiens) (protein)
chain: MALIPDLAMETWLLLAVSLVLLYLYGTHSHGLFKKLGIPGPTPLPFLGNILSYHKGFCMFDMECHKKYGKVWGFYDGQQPVLAITDPDMIKTVLVKECYSVFTNRRPFGPVGFMKSAISIAEDEEWKRLRSLLSPTFTSGKLKEMVPIIAQYGDVLVRNLRREAETGKPVTLKDVFGAYSMDVITSTSFGVNIDSLNNPQDPFVENTKKLLRFDFLDPFFLSITVFPFLIPILEVLNICVFPREVTNFLRKSVKRMKESRLEDTQKHRVDFLQLMIDSQNSKETESHKALSDLELVAQSIIFIFAGYETTSSVLSFIMYELATHPDVQQKLQEEIDAVLPNKAPPTYDTVLQMEYLDMVVNETLRLFPIAMRLERVCKKDVEINGMFIPKGVVVMIPSYALHRDPKYWTEPEKFLPERFSKKNKDNIDPYIYTPFGSGPRNCIGMRFALMNMKLALIRVLQNFSFKPCKETQIPLKLSLGGLLQPEKPVVLKVESRDGTVSGA
For the protein B1, the Km is 10.9 µM and 13.0 µM; the kcat is 112.8 pmol/min/pmol CYP.
